How the values were obtained:
[1] = tested on: Leishmania donovani; test: Antileishmanial activity against intramacrophage form of Leishmania donovani; format: functional, organism-based
[2] = Cytotoxicity against mouse RAW264.7 cells assessed as reduction in cell growth measured after 48 hrs by SYBR Green 1 dye based fluorescence assay
In short: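 RAW 264.7 cells seeded at 100,000 cells/well in DMEM with 10% FBS, 24 h at 37 °C, 5% CO₂. Two-fold serial dilutions, final 49 nM–100 μM, for 48 h. Growth read by SYBR Green I. CC50 by nonlinear regression. Miltefosine reference; untreated cells as growth control.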

[3] = tested on: Leishmania donovani; test: Antileishmanial activity against amastigote stage of Leishmania donovani (MHOM/ET/67/HU3) infected in mouse RAW264.7 cells assessed as reduction in parasitic proliferation measured by SYBR Green 1 dye based fluorescence assay; format: functional, organism-based; settings: MHOM/ET/67/HU3, RAW264.7
In short: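 RAW 264.7 macrophages seeded at 100,000 cells/well in DMEM with 10% heat-inactivated FBS, 24 h at 37 °C, 5% CO₂. Infected with plateau-phase promastigotes (parasite:macrophage 16:1) for 24 h. Compounds serially diluted, final 391 nM–100 μM. Amastigote viability read by SYBR Green I after lysis and 3 freeze-thaw cycles. IC50 by nonlinear regression against excipient-treated controls. Miltefosine reference.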

[4] = biological target: Serine/threonine-protein kinase pim-1 (Homo sapiens, UniProt P11309); test: Inhibition of recombinant human PIM1 expressed in bacteria using histone H1 as substrate in presence of [gamma-33P]ATP by radiometric assay; format: ADME
[5] = biological target: T1, Glycogen synthase kinase-3 (Sus scrofa, UniProt B2LUN4+I6LNT8); test: Inhibition of pig brain GSK alpha/beta using YRRAAVPPSPSLSRHSSPHQSpEDEEE as substrate in presence of [gamma-33P]ATP by radiometric assay; format: ADME, Sus scrofa domesticus
[6] = biological target: T2, Receptor-interacting serine/threonine-protein kinase 3 (Homo sapiens, UniProt Q9Y572); test: Inhibition of recombinant human RIPK3 expressed in baculovirus infected Sf9 cells using MBP as substrate in presence of [gamma-33P]ATP by radiometric assay
[7] = biological target: Dual specificity protein kinase CLK1 (Mus musculus, UniProt P22518); test: Inhibition of recombinant mouse CLK1 expressed in bacteria using GRSRSRSRSRSR as substrate in presence of [gamma-33P]ATP by radiometric assay; format: ADME
[8] = Toxicity against Galleria mellonella larva assessed as reduction of viability at 50 mg/kg measured for 7 days; format: organism-based; settings: in vivo, 168 h, time 7 day
In short: (§1)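 G. mellonella larvae (6th stage, 260–320 mg), groups of ten. Injected in the 4th left pro-leg with 10 μL at 10–50 mg/kg; controls got PBS/DMSO (DMSO <40%). Kept in the dark at 37 °C. Survival and cuticular darkening scored daily for 7 days; death taken as no movement on stimulus. Kaplan-Meier with log-rank test; two independent experiments.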

[9] = Cytotoxicity against human MRC5 cells assessed as reduction in cell viability measured after 96 hrs by resazurin assay; format: cell-based
In short: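 Human MRC-5 fibroblasts grown in RPMI 1640 with 10% FBS. Exposed to 100, 10 and 1 μM in triplicate for 96 h. Then 10 μL of 700 μM resazurin added for 4 h and fluorescence read. Value is the mean of triplicates.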

[10] = tested on: Leishmania major; test: Antileishmanial activity against amastigote stage of Leishmania major (MHOM/IL/81/BNI) infected in BALB/c mouse peritoneal macrophages assessed as reduction in parasitic proliferation measured after 4 days by MayGrunwald-Giemsa stain based microscopic method; format: functional, organism-based; settings: Peritoneal macrophage, 96 h
In short: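 BALB/c peritoneal macrophages on glass slides, 1.5×10⁵ cells/mL in RPMI 1640 with 15% FBS, 24 h attachment. Infected with stationary-phase promastigotes (1.5×10⁶/mL) for 24 h at 37 °C, 5% CO₂. Washed, then exposed 4 days to 100, 10, 1, 0.1 μM (DMSO ≤1% final). Methanol-fixed, May-Grunwald-Giemsa stained, amastigotes counted in 100 macrophages per duplicate well. IC50 from amastigotes/macrophage. Run twice.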

[11] = biological target: Aurora kinase B (Homo sapiens, UniProt Q96GD4); test: Inhibition of recombinant human AURKB expressed in baculovirus infected Sf9 cells using MBP as substrate in presence of [gamma-33P]ATP measured by radiometric assay
[12] = biological target: Cyclin-dependent kinase 5/CDK5 activator 1 (Homo sapiens, UniProt Q00535); test: Inhibition of human recombinant CDK5/ p25 expressed in bacterial expression system using histone H1 as substrate in presence of [gamma-33P]ATP by radiometric assay; format: ADME
[13] = biological target: CDK9/cyclin T1 (Homo sapiens, UniProt P50750); test: Inhibition of human recombinant CDK9/CyclinT expressed in baculovirus infected Sf9 cells using YSPTSPSYSPTSPSYSPTSPSKKK as substrate in presence of [gamma-33P]ATP by radiometric assay
[14] = biological target: CDK2/Cyclin A2 (Homo sapiens, UniProt P24941); test: Inhibition of human CDK2/ cyclinA using histone H1 as substrate in presence of [gamma-33P]ATP by radiometric assay; format: ADME, protein-complex assay
[15] = biological target: Dual specificity tyrosine-phosphorylation-regulated kinase 1A (Rattus norvegicus, UniProt Q63470); test: Inhibition of recombinant rat DYRK1A (1 to 499 ) expressed in bacterial expression system using KKISGRLSPIMTEQ as substrate in presence of [gamma-33P]ATP measured by radiometric assay
[16] = Inhibition of recombinant Leishmania major CK1.2 expressed in bacterial expression system using RRKHAAIGSpAYSITA as substrate in presence of [gamma-33P]ATP by radiometric assay
[17] = Toxicity against Galleria mellonella larva assessed as cuticular darkening at 50 mg/kg measured for 7 days; format: organism-based; settings: in vivo, 168 h, time 7 day; in short: as §1
[18] = Selectivity index, ratio of CC50 for mouse RAW264.7 cells to IC50 for amastigote stage of Leishmania major (MHOM/IL/81/BNI) infected in BALB/c mouse peritoneal macrophages; format: toxicity; settings: read-out: Ratio CC50/IC50
In short: (§2)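 Selectivity index is CC50 on RAW 264.7 or MRC-5 cells divided by IC50 on intracellular amastigotes.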

[19] = Selectivity index, ratio of CC50 for mouse RAW264.7 cells to IC50 for amastigote stage of Leishmania donovani (MHOM/ET/67/HU3) infected in mouse RAW264.7 cells; format: toxicity, cell-based; settings: read-out: Ratio CC50/IC50; in short: as §2
[20] = Selectivity index, ratio of CC50 for mouse RAW264.7 cells to IC50 for amastigote stage of Leishmania infantum (MHOM/FR/2008/LEM5700) infected in mouse RAW264.7 cells; format: toxicity, cell-based; settings: read-out: Ratio CC50/IC50; in short: as §2
[21] = Selectivity index, ratio of CC50 for human MRC5 cells to IC50 for amastigote stage of Leishmania major (MHOM/IL/81/BNI) infected in BALB/c mouse peritoneal macrophages; format: toxicity; settings: read-out: Ratio CC50/IC50; in short: as §2
[22] = tested on: Leishmania donovani; test: Potency index, ratio of Miltefosine IC50 to test compound IC50 for antileishmanial activity against amastigote stage of Leishmania donovani (MHOM/ET/67/HU3) infected in mouse RAW264.7 cells assessed as reduction in parasitic proliferation measured by SYBR Green 1 dye based fluorescence assay; format: functional
[23] = biological target: Casein kinase I isoform epsilon (Homo sapiens, UniProt P49674); test: Inhibition of recombinant human CK1 epsilon expressed in baculovirus infected Sf9 cells using RRKHAAIGSpAYSITA as substrate; format: ADME
[24] = Selectivity index, ratio of CC50 for mouse RAW264.7 cells to IC50 for amastigote stage of Leishmania braziliensis (MHOM/BR/75/M2903b) infected in mouse RAW264.7 cells; format: toxicity, cell-based; settings: read-out: Ratio CC50/IC50; in short: as §2
[25] = biological target: T2, Receptor-interacting serine/threonine-protein kinase 3; test: Inhibition of recombinant human RIPK3 expressed in baculovirus infected Sf9 cells using MBP as substrate in presence of ATP measured after 30 mins by ADP-Glo assay; format: ADME; settings: sf9, 0.5 h
[26] = Selectivity index, ratio of CC50 for human MRC5 cells to IC50 for amastigote stage of Leishmania amazonensis (MHOM/BR/73/M2269) infected in mouse RAW264.7 cells; format: toxicity, cell-based; settings: read-out: Ratio CC50/IC50; in short: as §2
[27] = Inhibition of recombinant Leishmania major CK1.2 expressed in bacterial expression system using RRKHAAIGSpAYSITA as substrate in presence of ATP measured after 30 mins by ADP-Glo assay
[28] = biological target: T1, Glycogen synthase kinase-3; test: Inhibition of pig brain GSK alpha/beta using YRRAAVPPSPSLSRHSSPHQSpEDEEE as substrate in presence of ATP measured after 30 mins by ADP-Glo assay; format: ADME, tissue-based, Sus scrofa domesticus

O=[N+]([O-])c1cn2c(n1)O[C@@H](COc1ccc(-c3ccc(F)cc3)nc1)CC2 [DNDI-0690]
EC50 [1]: 0.06 µM

Nc1nccc(-c2c(-c3ccc(F)cc3)nc3c(N)nccn23)n1
CC50 at 48 h [2]: 4.69 µM
IC50 [3]: 0.3 µM
inhibition (INH) [4]: Not Active
IC50 [5]: 1.1 µM
inhibition (INH) [6]: Not Active
IC50 [7]: 0.035 µM
Activity [8]: Non-Toxic
CC50 at 96 h [9]: 32.8 µM
IC50 [10]: 34.1 µM
inhibition (INH) [11]: Not Active
IC50 [12]: 10 µM
IC50 [13]: 0.5 µM
IC50 [14]: 0.8 µM
inhibition (INH) [15]: Not Active
IC50 [16]: 0.04 µM
Activity [17]: Non-Toxic

CN(C)c1nccn2c(-c3cnn(C)c3)c(-c3ccc(F)cc3)nc12
selectivity ratio [18]: 1.8
CC50 at 48 h [2]: 16 µM
selectivity ratio [19]: 12.6
selectivity ratio [20]: 6.1
selectivity ratio [21]: 11.1
Ratio IC50 [22]: 1.4
IC50 [23]: > 100 µM
Activity [8]: Non-Toxic
selectivity ratio [24]: 0.6
CC50 at 96 h [9]: > 100 µM
inhibition (INH) [25]: Not Active
IC50 [10]: 8.99 µM
selectivity ratio [26]: 4
IC50 [27]: 12.4 µM
IC50 [28]: > 10 µM

— ChEMBL document CHEMBL4813913, “In vitro identification of imidazo[1,2-a]pyrazine-based antileishmanial agents and evaluation of L. major casein kinase 1 inhibition” (Eur J Med Chem, 2021)
